# Hit rate of the full screen: of about 150,000 compounds, about 540 (0.36%) showed an effect of 50% or more. The list shows a part of the results.
# System: Plasmodium falciparum
# Experiment: Primary screen in NF54 nanoGlo assay, in single point, at 2uM, 72h; a lower Z score goes with more inhibition
# Format: functional, Erythrocyte
# Details: timepoint 72 hour
SMILES,% Inhibition [%],Z score
COc1ccc(CNC(=O)N(C)[C@H]2CCN(C)C2)c(OC)c1,2,-0.19
C/C(=C\c1ccccc1)CN1[C@H]2CCNC[C@@H]1CC2,-8,1.08
Cn1ccc2c(cc(C(=O)N3CCN(c4ccc(F)cc4)CC3)n2C)c1=O,-2,0.19
CC(C)CN(C(=O)[C@@H]1CCCO1)C1CC1,7,-0.75
CC(=O)c1cccc(-n2cnnc2CCc2c(C)n[nH]c2C)c1,6,-0.77
CC(C)N1CCC(Nc2ccc3c(c2)CCC(=O)N3CC2CC2)CC1,-7,0.94
CC(=O)NC[C@H]1CCN(Cc2cc(Cl)ccc2F)C[C@H]1N(C)C,-7,0.94
C[C@@H](CCc1nc(-c2cccc3c2ccn3C)n[nH]1)N1CCN(C)CC1,23,-2.98
C[C@H](O)c1cccc(-c2cccc3cccnc23)n1,-10,1.3
Cc1cc(N2CCC(C)CC2)nc2ccc(NC(=O)c3cccnc3)cc12,18,-2.1
Cc1c(C#N)c(NC(=O)COC[C@H]2CCCO2)n2ccccc12,-13,1.77
COc1ncc(CNC(=O)N2CCOCC3(CCC3)C2)cc1Cl,-14,2.68
CCCCn1nc(-c2ccncc2)nc1-c1cnccn1,-8,1.54
COCCNC(=O)c1c(C)c(S(=O)(=O)N2CCC(C)CC2)c(C)n1C,-5,0.6
O=C(Cn1cnc2ccccc2c1=O)N1CCN(c2ccc(C3CC3)nn2)CC1,10,-1.25
CC(C)(O)C#Cc1ccc(C(=O)N2CCC[C@H](c3nnc[nH]3)C2)o1,-9,1.13
Cc1ccc(-n2c(=O)c3sccc3n(CC(=O)NCc3ccc(F)cc3F)c2=O)cc1C,33,-4.77
CC(C)N(CC(=O)Nc1nc(CC(=O)N[C@@H](Cc2ccccc2)c2ccccc2)cs1)C(=O)c1ccccc1,-8,0.92
O=C(Nc1cnc(N2CCCC2)nc1)c1ccc(Br)cc1,-18,1.6
Cc1sccc1C(=O)NC1CCC(O)(c2cccc(F)c2)CC1 (stereo unspecified),-10,1.24
Cc1ccc(C)c(-c2cn3c(C(=O)N(C)Cc4cc(C)no4)csc3n2)c1,5,-0.62
NC(=O)[C@@H]1COCCN1Cc1csc2ccccc12,-14,1.82
O=C(NCC1CCOCC1)c1cc(C(F)F)n[nH]1,-4,0.67
CC(C)C(NC(=O)c1ccccc1F)C(=O)NCC(CO)CC1CCCC1 (stereo unspecified),-34,3.98
COc1cccc(C2=C[C@@H](c3cccc(OC)c3)N3N=CNC3=N2)c1,3,-0.41
CCn1cc(CN(C)S(=O)(=O)CCOc2ccccc2F)c(C)n1,-2,0.31
O=C1NC2(CCN(Cc3ccc(F)cc3)CC2)N=C1c1cccc(F)c1,-10,1.47

SMILES,% Inhibition [%],Z score
Cc1c(S(=O)(=O)c2ccc(Cl)cc2)c(N)n(CCc2ccccc2)c1C,-2,0.21
Cc1ccc2oc(-c3nnc(C(=O)N4CCN(c5cc(Cl)ccc5C)CC4)o3)c(C)c2c1,18,-2.15
COc1ccccc1C(=O)O[C@@H](C)c1cnc(C2OCCO2)s1,-21,1.85
O=C1CN(c2cccc3ccccc23)C(=O)N1c1ccc(Cl)c(Cl)c1,13,-2.45
C[C@@H](CC(=O)N1CCCCCC1)NCC(=O)NC(C)(C)C,-7,1.3
CCc1ccc(-c2cc3n(n2)C[C@@](C)(C(=O)NC2CCCCCCC2)N(C2CCCCC2)C3=O)cc1,-2,0.31
CCN(CCO)S(=O)(=O)c1ccc(Cl)cc1F,0,0.02
CC(COC1CCOC1)NC(=O)N1CCCN(C)c2ccc(F)cc21 (stereo unspecified),-7,0.86
O=C(Nc1cc(F)ccc1F)N1CCCCCC1CC(O)c1ccccc1 (stereo unspecified),0,-0.02
CN(C)Cc1nnc(C(=O)N2CCC(CCCc3ccccc3)CC2)o1,-3,0.67
CC(CN(C)C(C)C(=O)NCC1CCCO1)c1ccccc1 (stereo unspecified),-3,0.6
CCn1c(Cc2ccccc2O)nnc1N1Cc2ccc(C#N)cc2C1,-17,2.94
Cc1cccc(-c2nc3ccc(C(=O)NCCN(C)C4CCCCC4)cc3nc2-c2cccc(C)c2)c1,-1,0.18
Cc1nccc(N2CCC[C@H](CNC(=O)Cn3ccnc3C)C2)n1,-11,1.41
Cc1cc(C)c(CNC[C@H](C)n2cncn2)c(C)c1CO,-3,0.5
CCCn1ncc(CN(Cc2ccccc2OC)C2CC2)c1C,3,-0.56
CC(C)c1nc(CN2C[C@H]3CN(C4CCCCC4)C[C@@]3(C(=O)O)C2)no1,15,-1.96
O=C(N[C@H]1CCN(Cc2coc(-c3ccccc3)n2)C[C@@H]1O)c1cccnc1,-14,2.74
COc1cc(F)c([C@H](C)NCc2nnc(C)s2)cc1OC,9,-1.06
O=S(=O)(c1cccc2ccoc12)N1CCOCC12CCC2,-9,0.91
C=CCNC(=O)[C@@H](C#N)C(=O)c1cc(F)c(F)c(F)c1,6,-0.92
O=S(=O)(c1ccc2c(c1)OCCCO2)N1CCCCCC1,2,-0.43
COC(=O)c1cc(C)nc2c1c(=O)n(Cc1ccc(Cl)cc1)c(=O)n2-c1ccccc1OC,-7,1.06
NC(=O)[C@H]1CCN(C(=O)c2cccc3sc(C(F)(F)F)nc23)C1,1,-0.11
Cc1nc(-c2ccc(C)c(S(=O)(=O)NCc3ccccc3C)c2)cs1,24,-3.18
Cc1cc(OCCN(C)C)cc(C(C)C)c1,1,-0.14
